From the supplement of paper PMC7826260
Some of the results follow. Each Rep nickase domain was tested in vitro on the same pool of single strands (1 h at 37 °C, 3 µM enzyme); the outer parts of the 90-letter strands are left off. The score is log2 (uncut reads / reads without enzyme); more negative means more cut, near 0 not cut, and no call is made. Because reads are shares of a total, they shift together, so uncut sequences can rise above 0 when many others are cut.

Each sequence was assayed on T1, Rep nickase domain of tomato golden mosaic virus (assay: uncleaved DNA left, log2 of reads against the no-enzyme library (log2 ratio); higher = less cleavage (more negative = more Rep cleavage of the k-mer); sequences stand for … in CTCGTCCG…ACCGGAGA).
T1 sequence (Rep 1-124, printed without the tag): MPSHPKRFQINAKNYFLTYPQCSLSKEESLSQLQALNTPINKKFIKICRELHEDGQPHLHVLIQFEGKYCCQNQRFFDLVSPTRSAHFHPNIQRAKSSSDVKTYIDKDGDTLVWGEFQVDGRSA
Procedure: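 A pool of 90-nt single-stranded DNAs with seven random bases just before the constant AC of the nick site (name = the seven bases) was cut by 3 µM recombinant His6-SUMO-tagged Rep nickase domain (300 nM DNA, 50 mM HEPES pH 8.0, 50 mM NaCl, 1 mM MnCl2, 1 h, 37 °C, three replicates). Uncut DNA was amplified and sequenced.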

Row | Sequence | uncleaved DNA left (log2)
1 | CCCGCAT | -0.147
2 | CGCGATT | -0.311
3 | GCTTAGC | -0.0738
4 | CGATGAC | -0.158
5 | CGGATTC | -0.0886
6 | GATGTTG | -0.0561
7 | GCATAGC | 0.0603
8 | CTTTACA | -0.159
9 | AACGATG | 0.152
10 | CCCTGCG | -0.0478
11 | GCAGGGG | 0.103
12 | GAATCAC | -0.00687
13 | ACGACTC | 0.0238
14 | AGGCGAT | 0.11
15 | ACGTTCT | 0.00126
16 | GGTGCCT | -0.0262
17 | ACCCCTA | 0.0685
18 | TGTGCCG | -0.231
19 | TGTTCAC | 0.0153
20 | AATTCTC | -0.0469

Row | Sequence | uncleaved DNA left (log2)
21 | ACAAGCT | 0.0343
22 | TAAGAAT | -0.0365
23 | GCTTACG | -0.0413
24 | TACACAT | -0.011
25 | ACCAAAG | 0.17
26 | TCTAGCA | 0.0641
27 | GCTGACG | -0.000608
28 | CATGAAT | 0.0622
29 | GTCCTAT | 0.116
30 | TCTGGCA | -0.0978
31 | GCTCGTG | -0.0155
32 | ATCAAGT | 0.00752
33 | ACCCAGT | 0.0109
34 | TGCCTCT | -0.0965
35 | TACCAAG | 0.177
36 | GCACTCG | -0.139
37 | ACTCATG | -0.000276
38 | GGGTCGA | 0.0941
39 | AGCACAG | 0.082
40 | AGCAACG | 0.00761
